# Measured values reported in patent US20110092681A1.
# Experiments:
# [1] = biological target: collagen; test: collagen binding activity per mg VWF antigen; method not described
# [2] = biological target: collagen; test: collagen binding activity of the rVWF preparation; method not described
substance,measurement,setting,value
"human recombinant VWF (rVWF) (a stretch of the chain, sequence left out)",Specific collagen binding activity (U/mg),[1],88.4 U/mg and 97.9 U/mg and 70.5 U/mg
same,Collagen binding (U/ml),[2],63.2 U/ml and 107 U/ml and 142 U/ml

# Where “and” joins values, the source holds several entries; their conditions need not be identical. Identical values can stand only once.
